In publication PMC6006248, “CARK1 mediates ABA signaling by phosphorylation of ABA receptors” (Cell Discovery, 2018) one finds binding data, which are given here for five molecules.

Amino acid sequences for entries named in this document (tags omitted).
UniProt O49686: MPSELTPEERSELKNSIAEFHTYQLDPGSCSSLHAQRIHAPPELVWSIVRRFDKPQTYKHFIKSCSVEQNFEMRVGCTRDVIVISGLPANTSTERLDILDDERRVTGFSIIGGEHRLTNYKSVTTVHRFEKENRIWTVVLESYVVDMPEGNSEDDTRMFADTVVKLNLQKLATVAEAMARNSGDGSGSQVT

For test [1], the target named is T1, HA-tagged CARK1 (full-length) (Arabidopsis) (UniProt Q9LUT0).
T1 sequence: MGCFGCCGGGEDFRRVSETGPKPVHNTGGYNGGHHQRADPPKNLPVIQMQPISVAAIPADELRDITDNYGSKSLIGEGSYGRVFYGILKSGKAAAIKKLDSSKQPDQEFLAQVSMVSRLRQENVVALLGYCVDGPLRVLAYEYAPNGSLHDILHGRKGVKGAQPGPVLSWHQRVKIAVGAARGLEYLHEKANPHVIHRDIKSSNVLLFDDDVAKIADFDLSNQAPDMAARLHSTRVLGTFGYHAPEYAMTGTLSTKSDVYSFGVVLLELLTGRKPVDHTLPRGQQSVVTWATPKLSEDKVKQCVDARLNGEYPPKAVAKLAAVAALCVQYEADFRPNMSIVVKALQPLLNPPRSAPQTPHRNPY
Kind of test: co-IP; HA-tagged CARK1/CARK1^N204A and Flag-tagged RCAR3/RCAR11 co-transfected into wild-type Arabidopsis protoplasts; Anti-HA Magnetic Beads; 50 mM Tris pH 7.5, 150 mM NaCl, 5 mM EDTA, 1% Triton X-100; blot with anti-Flag and anti-HA.

The target of test [2] is T2, HA-tagged CARK1^N204A (Arabidopsis) (UniProt Q9LUT0).
T2 sequence: T1 sequence with N204A
The test is described as above.

Test [3] addresses T3, GST-tagged RCAR3 (Arabidopsis) (UniProt Q9FGM1).
T3 sequence: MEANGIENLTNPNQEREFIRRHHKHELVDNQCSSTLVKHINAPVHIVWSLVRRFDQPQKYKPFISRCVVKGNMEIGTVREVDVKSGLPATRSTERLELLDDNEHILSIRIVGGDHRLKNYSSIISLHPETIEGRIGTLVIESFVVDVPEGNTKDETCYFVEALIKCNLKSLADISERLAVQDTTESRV
Kind of test: condition: up to 200 μg of His-tagged CARK1-KD^N204A with 100 μg of GST-tagged RCAR3; pull-down; GST pull-down; His-tagged CARK1-KD or CARK1-KD^N204A (50, 100 and 200 μg) incubated with 100 μg of GST-tagged RCAR3 or RCAR11; SDS-PAGE and immunoblot; both purified.

Test [4] has as its target GST-tagged RCAR11 (Arabidopsis) (UniProt O49686). Kind of test: condition: up to 200 μg of His-tagged CARK1-KD^N204A with 100 μg of GST-tagged RCAR11; pull-down; GST pull-down; His-tagged CARK1-KD or CARK1-KD^N204A (50, 100 and 200 μg) incubated with 100 μg of GST-tagged RCAR3 or RCAR11; SDS-PAGE and immunoblot; both purified. A general note: In western blotting, separated proteins are transferred to a membrane and probed.

The target of test [5] is cYFP-RCAR11 (Arabidopsis) (UniProt O49686). Kind of test: split reporter; BiFC with nYFP and cYFP fusions co-expressed in leaves of N. benthamiana; confocal microscopy.
Test [6] has as its target T4, cYFP-RCAR3 (Arabidopsis) (UniProt Q9FGM1).
T4 sequence: T3 sequence
The test is described as above.

Test [7] concerns the target T5, RCAR14 (PYL2), two-hybrid bait (Arabidopsis) (UniProt O80992).
T5 sequence: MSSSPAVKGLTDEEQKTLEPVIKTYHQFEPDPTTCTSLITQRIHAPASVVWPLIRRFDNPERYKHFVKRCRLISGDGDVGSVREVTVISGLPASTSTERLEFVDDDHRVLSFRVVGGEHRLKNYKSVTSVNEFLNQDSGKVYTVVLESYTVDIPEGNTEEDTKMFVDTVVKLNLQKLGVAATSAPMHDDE
Kind of test: two-hybrid; MatchMaker GAL4 Two-Hybrid System 3; RCARs as bait in pGBKT7, CARK1C as prey in pGADT7 (library clones in pGADT7-Rec); 10 μM ABA added to the indicated medium to test its effect.

For test [8], the target named is T6, RCAR7 (PYL13), two-hybrid bait (Arabidopsis) (UniProt Q9SN51).
T6 sequence: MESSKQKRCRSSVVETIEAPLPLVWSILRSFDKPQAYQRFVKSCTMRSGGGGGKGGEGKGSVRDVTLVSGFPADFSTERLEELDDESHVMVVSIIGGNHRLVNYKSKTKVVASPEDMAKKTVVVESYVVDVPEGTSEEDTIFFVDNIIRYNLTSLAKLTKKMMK
Described as above.

Test [9] addresses T7, RCAR3 (PYL8), two-hybrid bait (Arabidopsis) (UniProt Q9FGM1).
T7 sequence: T3 sequence
Described as above.

The target in test [10] is RCAR11 (PYR1), two-hybrid bait (Arabidopsis) (UniProt O49686). The description is as above.

Positions count from the first letter of the chain named. Numbers in names are those of the source. Results are given in words; binding and its absence hold for the method and conditions named. For part of these data: Binding seen in cells or lysates may run through a third protein. Some binding calls cover weakened binding; strength is not graded here. For part of these data: Sequences can lack the tags named with a protein.

In the case of “Flag-tagged RCAR11 (from UniProt O49686 1-191) (receptor)”, the binding entry is “binds” in test [1] and “no binding” in test [2].

B1: Flag-tagged RCAR3 (receptor, UniProt Q9FGM1 1-188)
chain: T3 sequence
Regarding B1, the binding entry is on record as “binds” in test [1] and “no binding” in [2].

B2: His-tagged CARK1-KD^N204A (domain or fragment, UniProt Q9LUT0 50-353)
chain: QPISVAAIPADELRDITDNYGSKSLIGEGSYGRVFYGILKSGKAAAIKKLDSSKQPDQEFLAQVSMVSRLRQENVVALLGYCVDGPLRVLAYEYAPNGSLHDILHGRKGVKGAQPGPVLSWHQRVKIAVGAARGLEYLHEKANPHVIHRDIKSSAVLLFDDDVAKIADFDLSNQAPDMAARLHSTRVLGTFGYHAPEYAMTGTLSTKSDVYSFGVVLLELLTGRKPVDHTLPRGQQSVVTWATPKLSEDKVKQCVDARLNGEYPPKAVAKLAAVAALCVQYEADFRPNMSIVVKALQPLLNPPR
As for B2, the binding entry in [3] and in test [4] was “no binding” each time.

B3: CARK1-nYFP (enzyme, UniProt Q9LUT0 1-364)
chain: T1 sequence
As to B3, the binding result in test [5] and in test [6] was “binds” throughout.

B4: CARK1C (amino acid residues 290-364 of CARK1), two-hybrid prey (domain or fragment, UniProt Q9LUT0 290-364)
chain: WATPKLSEDKVKQCVDARLNGEYPPKAVAKLAAVAALCVQYEADFRPNMSIVVKALQPLLNPPRSAPQTPHRNPY
For B4, the binding result in test [7] was “no binding”; in [8], “no binding”; in [9], “binds”; in [10] it was “binds”.
